# In the supplement of paper PMC8512760:
# This is one part of the list. Most values come without repeats; read them as rough.
# Tests used:
# Assay in all cases: cell viability relative to vehicle (% of vehicle); basal-like triple-negative breast cancer lines; higher = less cytotoxic
# Details in all cases: 10 µM; 72 h
# HCC-1143 = test system: HCC-1143
# HCC-1187 = test system: HCC-1187
# MDA-468 = test system: MDA-468
# SUM-149 = test system: SUM-149
# 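Note: stably firefly luciferase-GFP labeled cells in 96-well plates, viability read as luciferase photon flux after d-luciferin addition, treated wells normalized to vehicle wells, single-dose high-throughput screen.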
Compound,cell viability (HCC-1143),cell viability (HCC-1187),cell viability (MDA-468),cell viability (SUM-149)
O=C1OC(C(O)CO)C([O-])=C1O.[Na+] (stereo not given) [Sodium ascorbate],78.8,107,113,93.5
Cc1c(N(C)C)c(=O)n(-c2ccccc2)n1C [Amidopyrine],69.5,91.9,118,128
COc1cccc2c1C(=O)c1c(O)c3c(c(O)c1C2=O)C[C@@](O)(C(C)=O)C[C@@H]3O[C@H]1C[C@H](N)[C@H](O)[C@H](C)O1.Cl [Daunorubicin HCl],20.3,22.9,32.4,26.5
CCCCc1ncc(C=C(Cc2cccs2)C(=O)O)n1Cc1ccc(C(=O)O)cc1.CS(=O)(=O)O [Eprosartan Mesylate],113,126,132,130
C[C@@H]1C[C@H]2[C@H]3CCC4=CC(=O)C=C[C@]4(C)[C@@]3(F)[C@@H](O)C[C@]2(C)[C@@]1(O)C(=O)CO [Dexamethasone (DHAP)],87,112,130,172
NCC(O)c1ccc(O)c(O)c1.O.O=C(O)C(O)C(O)C(=O)O (stereo not given) [Noradrenaline bitartrate monohydrate],93.1,99.1,176,116
Cl.Cl.O=C1c2c(O)ccc(O)c2C(=O)c2c(NCCNCCO)ccc(NCCNCCO)c21 [Mitoxantrone HCl],24.9,25.1,33.8,31.2
CCCSc1nc(NC2CC2c2ccc(F)c(F)c2)c2nnn(C3CC(OCCO)C(O)C3O)c2n1 (stereo not given) [Ticagrelor],65.7,90.3,106,101
CC1CC(OC(=O)C(O)c2ccccc2)CC(C)(C)C1 (stereo not given) [Cyclandelate],69,98.8,99,94.1
CS(=O)(=O)c1ccc(C(=O)Nc2ccc(Cl)c(-c3ccccn3)c2)c(Cl)c1 [GDC-0449 (Vismodegib)],96.7,91.9,86.6,114
Cc1c(-c2ccccc2)oc2c(C(=O)OCCN3CCCCC3)cccc2c1=O.Cl [Flavoxate hydrochloride],70,91.3,130,109
Cc1ccc(S(=O)(=O)NC(=O)NN2CC3CCCC3C2)cc1 (stereo not given) [Gliclazide],148,104,81.9,107
COc1ccc(O)cc1 [Mequinol],76.7,98.2,103,79.7
CC1OC(OC2C(CO)OC(OC3C(CO)OC(O)C(O)C3O)C(O)C2O)C(O)C(O)C1NC1C=C(CO)C(O)C(O)C1O (stereo not given) [Acarbose],89.1,118,97.7,103
Cl.Cl.NC(=NCCCCCCN=C(N)N=C(N)Nc1ccc(Cl)cc1)N=C(N)Nc1ccc(Cl)cc1 [Chlorhexidine HCl],52.3,29.1,58.4,65.5
CC(COc1ccccc1)N(CCCl)Cc1ccccc1.Cl (stereo not given) [Phenoxybenzamine HCl],90.9,118,124,114
CC1(C)O[C@@H]2C[C@H]3[C@@H]4C[C@H](F)C5=CC(=O)C=C[C@]5(C)[C@@]4(F)[C@@H](O)C[C@]3(C)[C@]2(C(=O)CO)O1 [Fluocinolone Acetonide],86.6,95,154,189
CC(=O)N(CC(O)CO)c1c(I)c(C(=O)NCC(O)CO)c(I)c(C(=O)NCC(O)CO)c1I (stereo not given) [Iohexol],98.8,95.7,122,107
CC(=O)OCC(CCn1cnc2cnc(N)nc21)COC(C)=O [Famciclovir],106,108,87.1,92.1
Cc1ccnc2c1NC(=O)c1cccnc1N2C1CC1 [Nevirapine],90.4,124,119,96.8
CNC(C)C1CCC(N)C(OC2C(N)CC(N)C(OC3OCC(C)(O)C(NC)C3O)C2O)O1.O=S(=O)(O)O (stereo not given) [Gentamycin Sulfate],111,90.9,87.5,70.3
C[N+](C)(C)CCOC(N)=O.[Cl-] [Carbamoylcholine chloride],111,96.8,130,103
Oc1ccc(C2CNCCc3c2cc(O)c(O)c3Cl)cc1 (stereo not given) [Fenoldopam],96.1,116,102,105
CO[C@H]1O[C@@H]2O[C@@]3(C)CC[C@H]4[C@H](C)CC[C@@H]([C@H]1C)[C@@]24OO3 [Artemether (SM-224)],71.1,89.2,87.2,88.7
CCOC(=O)C1=C(COCCN)NC(C)=C(C(=O)OC)C1c1ccccc1Cl (stereo not given) [Amlodipine],82,66,87.1,94.9

Compound,cell viability (HCC-1143),cell viability (HCC-1187),cell viability (MDA-468),cell viability (SUM-149)
"CCC(CO)Nc1nc(NCc2ccccc2)c2ncn(C(C)C)c2n1 (stereo not given) [Roscovitine (Seliciclib,CYC202)]",81.8,63.4,80.2,133
CNC(=O)c1ccccc1Sc1ccc2c(C=Cc3ccccn3)n[nH]c2c1,66.9,58.4,115,93.1
CCN(CC)CCNC(=O)c1c(C)[nH]c(C=C2C(=O)Nc3ccc(F)cc32)c1C [Sunitinib],72.8,61.7,86.3,61.9
CN(C)CCc1c[nH]c2ccc(Cn3cncn3)cc12.O=C(O)c1ccccc1 [Rizatriptan Benzoate],74.1,101,122,116
Nc1ccn(C2CCC(CO)O2)c(=O)n1 (stereo not given) [Zalcitabine],83.1,82.2,103,93.6
COCCCOc1ccnc(C[S+]([O-])c2nc3ccccc3[nH]2)c1C (stereo not given) [Rabeprazole sodium],142,103,158,178
Cl.c1ccc(CN(CC2=NCCN2)c2ccccc2)cc1 [Antazoline HCl],97.8,100,104,114
C=CC1=C(C(=O)O)N2C(=O)C(NC(=O)C(=NO)c3csc(N)n3)C2SC1 (stereo not given) [Cefdinir],81,109,104,98.7
Cc1nnc(C(C)C)n1C1CC2CCC(C1)N2CCC(NC(=O)C1CCC(F)(F)CC1)c1ccccc1 (stereo not given) [Maraviroc],91.1,115,96.4,77
O=C(NC(CO)C(O)c1ccc([N+](=O)[O-])cc1)C(Cl)Cl (stereo not given) [Chloramphenicol],83.7,90.5,86.1,92.9
"CC1(C)SC2C(NC(=O)C(C(=O)[O-])c3ccccc3)C(=O)N2C1C(=O)[O-].[Na+].[Na+] (stereo not given) [Carbenicillin, Disodium Salt]",84.8,105,86.5,76.7
NS(=O)(=O)Cc1noc2ccccc12 [Zonisamide],87.3,134,97.3,129
CC1Cc2ccccc2N1NC(=O)c1ccc(Cl)c(S(N)(=O)=O)c1 (stereo not given) [Indapamide],95.1,113,107,92.7
Cc1c(-c2ccc(O)cc2)n(Cc2ccc(OCCN3CCCCCC3)cc2)c2ccc(O)cc12.Cl [Bazedoxifene HCl],55,71.2,76.1,71.8
CCCCNc1cc(C(=O)O)cc(S(N)(=O)=O)c1Oc1ccccc1 [Bumetanide],97.7,97.9,97.5,101
O=C(O)CCNC(=O)c1ccccc1 [Betamipron],84.8,109,110,85.8
CC1CC(=O)NN=C1c1ccc(NN=C(C#N)C#N)cc1 (stereo not given) [Levosimendan],74.1,66.4,73.8,88.8
CC1(C)SC2C(NC(=O)C(NC(=O)N3CCNC3=O)c3ccccc3)C(=O)N2C1C(=O)[O-].[Na+] (stereo not given) [Azlocillin sodium salt],70.4,77.4,104,137
CNS(=O)(=O)CCc1ccc2[nH]cc(C3CCN(C)CC3)c2c1.Cl [Naratriptan],75.2,92.7,85,75.3
O=c1c(-c2ccc(O)cc2)coc2cc(O)ccc12 [Daidzein],173,119,165,171
CCCC1CC(C(=O)NC(C(C)Cl)C2OC(SC)C(O)C(O)C2O)N(C)C1 (stereo not given) [Clindamycin],64.6,97.1,109,89.7
CC(=O)O[C@H]1C[C@@]2(C)[C@@H](C[C@@H](O)[C@H]3[C@@]4(C)CC[C@@H](O)[C@@H](C)[C@@H]4CC[C@@]32C)/C1=C(\CCC=C(C)C)C(=O)[O-].[Na+] [Fusidic Acid (sodium salt)],69,97,111,68.9
CC(CN(C)C)CN1c2ccccc2CCc2ccccc21.O=C(O)/C=C\C(=O)O (stereo not given) [Trimipramine (maleate)],110,102,120,91.6
Nc1ccc(S(N)(=O)=O)cc1 [Sulfanilamide],112,84,96.6,99.4
CCCCC(=O)N(Cc1ccc(-c2ccccc2-c2nnn[nH]2)cc1)[C@H](C(=O)O)C(C)C.CCOC(=O)[C@H](C)C[C@@H](Cc1ccc(-c2ccccc2)cc1)NC(=O)CCC(=O)O,78.9,93.4,106,99.7
